From PubChem BioAssay AID504332 (National Center for Advancing Translational Sciences (NCATS), 2011)
About 31,000 (8.9%) of roughly 350,000 compounds were called active. Inconclusive means that the source gave no clear call. Such entries were picked first, then a sample of the others. Calls follow the shape of the dose curve; as a rule, active = well fitted inhibition curve with a large enough effect; inconclusive = small, poorly fitted or top-dose-only effect; inactive = no such curve, though single readings can be large or run the other way. Where the call is inconclusive, the potency comes from a doubtful curve fit.

target: Histone-lysine N-methyltransferase EHMT2 (Homo sapiens) (UniProt Q96KQ7); test: qHTS Assay for Inhibitors of Histone Lysine Methyltransferase G9a; conditions: G9a H3K9 monomethylation, AlphaScreen, 2 h; activity, negative = inhibition: at 59 µM (top of the series) unless noted; also: nearly all actives have a fitted effect of over 75% in size
Chain of UniProt Q96KQ7 (Q96KQ7 whole entry, looked up): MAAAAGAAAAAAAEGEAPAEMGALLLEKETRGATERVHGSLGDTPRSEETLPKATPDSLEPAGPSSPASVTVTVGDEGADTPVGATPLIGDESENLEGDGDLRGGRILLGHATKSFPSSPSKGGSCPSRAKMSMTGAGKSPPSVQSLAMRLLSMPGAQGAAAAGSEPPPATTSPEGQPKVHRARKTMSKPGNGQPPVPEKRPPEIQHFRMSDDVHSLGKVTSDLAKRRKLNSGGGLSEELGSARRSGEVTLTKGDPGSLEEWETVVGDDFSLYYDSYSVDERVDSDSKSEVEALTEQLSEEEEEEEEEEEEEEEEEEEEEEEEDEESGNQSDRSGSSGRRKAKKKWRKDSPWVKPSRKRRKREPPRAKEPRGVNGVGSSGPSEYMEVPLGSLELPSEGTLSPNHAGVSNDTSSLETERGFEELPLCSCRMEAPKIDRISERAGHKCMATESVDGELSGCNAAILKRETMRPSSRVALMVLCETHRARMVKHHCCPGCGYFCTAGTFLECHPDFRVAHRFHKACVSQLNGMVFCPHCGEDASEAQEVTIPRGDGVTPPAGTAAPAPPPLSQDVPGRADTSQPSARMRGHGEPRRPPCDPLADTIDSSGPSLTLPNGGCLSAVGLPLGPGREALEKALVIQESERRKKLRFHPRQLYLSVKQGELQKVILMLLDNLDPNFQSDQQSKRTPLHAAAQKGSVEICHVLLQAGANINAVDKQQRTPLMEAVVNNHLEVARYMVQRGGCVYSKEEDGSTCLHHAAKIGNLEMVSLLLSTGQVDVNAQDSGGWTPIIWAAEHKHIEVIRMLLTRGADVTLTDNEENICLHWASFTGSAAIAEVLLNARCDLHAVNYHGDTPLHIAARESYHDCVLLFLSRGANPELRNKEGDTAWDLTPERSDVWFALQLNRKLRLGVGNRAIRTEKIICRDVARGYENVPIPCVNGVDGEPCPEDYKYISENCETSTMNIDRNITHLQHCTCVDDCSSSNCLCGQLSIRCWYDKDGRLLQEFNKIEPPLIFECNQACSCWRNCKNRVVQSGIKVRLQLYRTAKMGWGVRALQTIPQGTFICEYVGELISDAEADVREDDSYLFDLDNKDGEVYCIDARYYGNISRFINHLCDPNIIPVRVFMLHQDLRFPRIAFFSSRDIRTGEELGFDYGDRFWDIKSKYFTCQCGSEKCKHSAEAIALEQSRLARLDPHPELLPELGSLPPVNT
How it was run: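 Step 1: enzyme (final 20 nM) with compound, 15 min RT. Step 2: substrate peptide 500 nM and SAM 20 uM, 2 h RT. Step 3: anti-H3K9me1 antibody and AlphaScreen beads, 10 min, then plate read.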
% is scaled to controls: 0 for no effect and ±100 for the full control effect; potency is read from the fitted curve at half-maximal effect; tags tell the direction and shape of the fitted curve.

Compound	activity, negative = inhibition	Potency
C/C(=C\c1cccc(Cl)c1)C(=O)c1c(C)cc(C)[nH]c1=O	inactive: 28.1% [at 2.33 µM]	
Cc1cccc(/C=C2\Oc3cc(OS(C)(=O)=O)ccc3C2=O)c1		inconclusive: 22.4 µM [inhibitor, single point]
CN(CC(=O)Nc1ccccc1C(F)(F)F)CC(=O)N1CCCCCC1		inconclusive: 3.16 µM [inhibitor, single point]
O=C(CN1CCCC1)Nc1nnc(-c2cccs2)s1		inconclusive: 89.1 µM [inhibitor, single point]
CCn1c(SCC(=O)NCCc2ccccc2)nc2sc3c(c2c1=O)CCN(C)C3		inconclusive: 50.1 µM [inhibitor, partial curve]
C/C(=N/Nc1ccccc1C(=O)O)c1cccs1		inconclusive: 17.8 µM [inhibitor, partial curve, poor fit]
CN(C)CCCNS(=O)(=O)c1ccc(Cl)s1		inconclusive: 50.1 µM [inhibitor, partial curve]
Nc1c(C(=O)CSc2nccn2-c2ccc(Cl)cc2)c(=O)[nH]c(=O)n1C1CC1		inconclusive: 39.8 µM [inhibitor, single point]
COc1ccccc1/C=C/C(=O)NNC(=O)c1cc(C)oc1C		inactive
CCN(CC)CCCN(C(=O)c1ccc(F)cc1)c1nc(-c2ccc(OC)cc2)cs1		inconclusive: 70.8 µM [inhibitor, single point]
CN(C)CCn1c(=S)[nH]c2ccccc2c1=O		inconclusive: 1 µM [inhibitor, full curve, poor fit]
CCC(C)(C)n1nnnc1C(c1cc2cccc(C)c2[nH]c1=O)N1CCCC1 (stereo not drawn)		active: 11.2 µM
CCOC(=O)c1c(/N=C/c2cccc([N+](=O)[O-])c2O)sc(C)c1C		active: 7.08 µM
Cc1nc(NC(=O)/C=C/c2ccco2)sc1C		inconclusive: 89.1 µM [inhibitor, single point]
Cc1cc(/C=C(\C#N)C(=O)O)c(C)n1CC(C)C		inconclusive: 79.4 µM [inhibitor, single point]
COc1ccc2[nH]c(C(=O)Nc3ccc4c(c3)OCO4)cc2c1		inconclusive: 50.1 µM [inhibitor, partial curve]
CC(C)[C@H](NC(=O)Cc1ccccc1)C(=O)OCc1cc(=O)n2c(n1)sc1ccccc12		inconclusive: 79.4 µM [inhibitor, single point]
Nc1ccc2nc(SCc3cccc(F)c3)sc2c1		active: 44.7 µM
COc1ccc(-n2nnnc2SCC(N)=O)cc1		inactive
COc1ccc(N2C(=O)CS/C2=C\[N+](=O)[O-])cc1		inconclusive: 56.2 µM [inhibitor, partial curve, poor fit]
O=C(NC1(Cc2ccccc2)CCN(CCCc2ccccc2)C1=O)c1ccccc1 (stereo not drawn)	inactive: -4.98% [at 2.33 µM]	
CN(CC(=O)Nc1ccc(Cl)c(C(F)(F)F)c1)C(=O)Cc1c[nH]c2ccccc12		inconclusive: 50.1 µM [inhibitor, partial curve]
O=C(Cc1cccs1)N(Cc1cccs1)C1(C(=O)NC2CCCCC2)CCCCC1		inconclusive: 3.16 µM [inhibitor, single point]
COc1ccc2c(c1)c(C(=O)N/N=C/c1ccc(O)c(O)c1)c(C)n2C		active: 50.1 µM
CC1S/C(=N/N=C2CCCCC2)NC1=O (stereo not drawn)		inactive

Compound	activity, negative = inhibition	Potency
CN1CCN(C(N)=NC(=O)c2ccccc2)CC1		inconclusive: 0.282 µM [inhibitor, full curve, poor fit]
CCCCc1c(C)nc2ccc(Br)cc2c1SCCC#N		active: 28.2 µM
COc1cccc(N2CCN(Cc3ccsc3)CC2)c1		inconclusive: 31.6 µM [inhibitor, single point]
CC(C)(C)c1nnc(NC(=O)CCS(=O)(=O)Cc2ccccc2)s1		inconclusive: 89.1 µM [inhibitor, single point]
c1ccc2c(c1)CCCN2Cc1nnnn1CC1CCCO1 (stereo not drawn)		inconclusive: 7.08 µM [inhibitor, single point]
COc1ccc(-c2nn(-c3ccccc3)cc2C(=O)Nc2nccs2)cc1		inactive
COCCN(CCOC)Cc1c(O)ccc2c1O/C(=C\c1ccc(C)o1)C2=O		active: 1 µM
CN(C)c1nc(C(=O)O)nc(N2CCOCC2)n1		inconclusive: 1 µM [inhibitor, full curve, poor fit]
CC1CCN(C(=O)COC(=O)Cc2c[nH]c3ccccc23)CC1		inconclusive: 2.51 µM [inhibitor, partial curve, poor fit]
CCC(C)NC(=O)Cn1c(=O)n(-c2cc(OC)cc(OC)c2)c(=O)c2ccccc21 (stereo not drawn)		inactive
CC1(C)CC(=O)C2=C(C1)c1c(ccc3ccccc13)NC2c1ccc(C(=O)O)cc1 (stereo not drawn)		inactive
CC(=O)Nc1ccc(S(=O)(=O)N2CCC(n3c(C)nc4cccnc43)CC2)cc1		inactive
O=C(N=c1nc2ccccn2s1)c1ccccc1		inconclusive: 79.4 µM [inhibitor, single point]
CCCNC(=O)CSc1ccc(S(=O)(=O)N2CCCCC2)cn1		inconclusive: 70.8 µM [inhibitor, partial curve]
O=c1c2ccccc2[nH]c(=S)n1CCN1CCN(Cc2ccccc2)CC1	inconclusive: -93% [inhibitor]	
O=C(Nc1ccc(-n2nncc2-c2ccco2)cc1)c1ccc(F)cc1		active: 50.1 µM
Cc1nc(-c2ccc(S(=O)(=O)Nc3cccc(S(N)(=O)=O)c3)s2)cs1		inconclusive: 89.1 µM [inhibitor, partial curve, poor fit]
Cc1ccc(-c2cc(C(=O)N3CCCCCC3)no2)cc1		inactive
CC(=O)C1=NN(c2ccccc2)C(c2ccc3c(c2)OCO3)N1c1ccccc1 (stereo not drawn)		inactive
CC(NC(=O)COc1ccccc1F)C1CC2CCC1C2 (stereo not drawn)		inactive
C/C(=N\NC(=O)C(N)=O)c1cccc([N+](=O)[O-])c1		inconclusive: 50.1 µM [inhibitor, partial curve]
Cc1c(Nc2c3c(c(C#N)c4nc5ccccc5n24)CCC3)c(=O)n(-c2ccccc2)n1C		active: 50.1 µM
CCOC(=O)C1=C(C)Nc2sc(C(=O)c3ccc(F)cc3)c(N)c2C1c1ccc(C(=O)OC)cc1 (stereo not drawn)		inconclusive: 89.1 µM [inhibitor, single point]
O=C(O)/C=C/C(=O)NNC(=O)c1ccccc1Br	inactive: 11.1% [at 0.0925 µM]	
Cc1ccc(/C=N/N(C)C2=NS(=O)(=O)c3ccccc32)o1		active: 39.8 µM

Compound	activity, negative = inhibition	Potency
CCOc1ccc(NC(=O)Cn2cc(C(=O)C3CC3)c3ccccc32)cc1		inactive
CC(Sc1sc(=S)sc1SC(C)C(=O)O)C(=O)O (stereo not drawn)		active: 50.1 µM
Cc1ccc(S(=O)(=O)N(C)C)cc1NC(=O)/C=C/c1cccs1		inconclusive: 70.8 µM [inhibitor, single point]
COc1cc(/C=C/C(=O)OC2CC3CCC2(C)C3(C)C)ccc1O (stereo not drawn)		inactive
Cc1cc(=O)[nH]c2nnc(SCc3cccc(C(F)(F)F)c3)n12		inactive
COc1ccc2nc(SCC(=O)N(C)C3CCCCC3)c(C#N)cc2c1		inconclusive: 35.5 µM [inhibitor, single point]
O=C(Nc1nnc(CSCc2ccc(F)cc2)s1)c1ccc([N+](=O)[O-])cc1		inconclusive: 89.1 µM [inhibitor, single point]
CC1(C)CC2CC(C)(CN2/C=C2/CCCCC2=O)C1 (stereo not drawn)	inactive: -1.01% [at 12.7 µM]	
CCOc1ccc(CN(CCc2ccc3c(c2)OCO3)Cc2cc(OC)cc(OC)c2)cc1		active: 1.41 µM
Cc1ccc2c(CNCCc3ccco3)c(C(=O)O)n(Cc3ccc(F)cc3)c2c1		inconclusive: 11.2 µM [inhibitor, partial curve, poor fit]
Cc1cccc(C)c1NC(=O)CN(C)C(=O)c1ccc2nc[nH]c2c1		inconclusive: 50.1 µM [inhibitor, partial curve]
Cc1cc(C)nc(SCc2n[nH]c(=S)n2C)n1		active: 7.08 µM
Cn1nnc2c[n+](CC(=O)c3ccc(Cl)cc3)cc(Br)c21		inconclusive: 0.891 µM [inhibitor, full curve, poor fit]
CCN(CC)S(=O)(=O)c1cc(NC(=O)CNc2cccc(S(=O)(=O)N3CCCC3)c2)ccc1C		inconclusive: 56.2 µM [inhibitor, partial curve, poor fit]
COc1ccc(Cl)c2sc(N(CCN(C)C)C(=O)CCS(=O)(=O)c3ccc(C)cc3)nc12		active: 10 µM
COc1ccccc1CCNC(=O)c1csc2c1CCCC2		inconclusive: 44.7 µM [inhibitor, partial curve]
COc1ccccc1/C=C/C=N/N1CCN(Cc2cccc3ccccc23)CC1	inconclusive: -92.9% [inhibitor]	
COc1cc(Cl)c(NC(=O)CN2C(=O)c3cccnc3Sc3ccccc32)c(OC)c1		inactive
N#C/C(=C(/O)c1ccc(F)cc1)c1nc2ccccc2s1		inconclusive: 28.2 µM [inhibitor, partial curve]
CCN(CC)S(=O)(=O)c1ccc(NS(=O)(=O)c2cccc(C)c2)cc1		inactive
O=C(C[N+]1(CC#Cc2ccccc2)CCOCC1)c1ccc(Cl)cc1		inconclusive: 11.2 µM [inhibitor, full curve]
COc1cc(N)c(Cl)cc1C(=O)OCC(=O)c1ccc2c(c1)NC(=O)CO2		inconclusive: 89.1 µM [inhibitor, single point]
COc1cccc(NC(=O)CSc2nnc(Cc3cccn3C)n2-c2ccc(F)cc2)c1		inconclusive: 31.6 µM [inhibitor, single point]
